Reference: paper PMC10470960
Residue numbers refer to the chain shown, from its start. Results are given in words; binding and its absence hold for the method and conditions named. Some binding calls cover weakened binding; strength is not graded here. Tags and fused reporters may be left off the sequences shown.

Legend:
Assay in all cases: two-hybrid; KAR4-GBD alleles with IME4-GAD in PJ69-4 diploids; 24 hours in meiosis-inducing conditions, then 10-fold serial dilutions on SC-HIS and SC-ADE (HIS3 and ADE2 reporters); graded ++++ to -
[1] = target: T1, Kar4p T264P fused to the Gal4p DNA-binding domain (S. cerevisiae) (UniProt P25583)
T1 sequence: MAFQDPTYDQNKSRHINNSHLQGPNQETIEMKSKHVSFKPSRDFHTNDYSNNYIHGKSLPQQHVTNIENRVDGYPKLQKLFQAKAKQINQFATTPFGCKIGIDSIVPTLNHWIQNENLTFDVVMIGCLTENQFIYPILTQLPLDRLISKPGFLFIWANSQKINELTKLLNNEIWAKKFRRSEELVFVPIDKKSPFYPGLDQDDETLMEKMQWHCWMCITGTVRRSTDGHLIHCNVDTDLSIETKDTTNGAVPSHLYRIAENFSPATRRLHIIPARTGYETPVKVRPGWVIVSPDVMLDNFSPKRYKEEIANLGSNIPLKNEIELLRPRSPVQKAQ

[2] = target: T2, Kar4p L255F fused to the Gal4p DNA-binding domain (S. cerevisiae) (UniProt P25583)
T2 sequence: T1 sequence with L255F, P264T

[3] = target: T3, Kar4p G287D fused to the Gal4p DNA-binding domain (S. cerevisiae) (UniProt P25583)
T3 sequence: T1 sequence with P264T, G287D

[4] = target: T4, Kar4p G126A fused to the Gal4p DNA-binding domain (S. cerevisiae) (UniProt P25583)
T4 sequence: T1 sequence with G126A, P264T

[5] = target: T5, Kar4p A310Stop fused to the Gal4p DNA-binding domain (S. cerevisiae) (UniProt P25583)
T5 sequence: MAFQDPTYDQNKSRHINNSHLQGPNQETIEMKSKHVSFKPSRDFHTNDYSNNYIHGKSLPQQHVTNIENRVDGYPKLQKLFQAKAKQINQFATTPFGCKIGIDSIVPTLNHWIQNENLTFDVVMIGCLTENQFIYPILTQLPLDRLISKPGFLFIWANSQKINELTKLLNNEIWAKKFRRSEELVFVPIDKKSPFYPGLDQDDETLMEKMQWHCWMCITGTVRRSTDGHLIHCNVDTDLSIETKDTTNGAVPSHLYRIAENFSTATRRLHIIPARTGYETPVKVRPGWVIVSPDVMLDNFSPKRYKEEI

[6] = target: T6, Kar4p H213Y fused to the Gal4p DNA-binding domain (S. cerevisiae) (UniProt P25583)
T6 sequence: T1 sequence with H213Y, P264T

binding [1]: binds | binding [2]: binds | binding [3]: no binding | binding [4]: no binding | binding [5]: binds | binding [6]: binds
B1: Ime4p fused to the Gal4p activating domain (protein, UniProt P41833 1-600)
chain: MINDKLVHFLIQNYDDILRAPLSGQLKDVYSLYISGGYDDEMQKLRNDKDEVLQFEQFWNDLQDIIFATPQSIQFDQNLLVADRPEKIVYLDVFSLKILYNKFHAFYYTLKSSSSSCEEKVSSLTTKPEADSEKDQLLGRLLGVLNWDVNVSNQGLPREQLSNRLQNLLREKPSSFQLAKERAKYTTEVIEYIPICSDYSHASLLSTSVYIVNNKIVSLQWSKISACQENHPGLIECIQSKIHFIPNIKPQTDISLGDCSYLDTCHKLNTCRYIHYLQYIPSCLQERADRETASENKRIRSNVSIPFYTLGNCSAHCIKKALPAQWIRCDVRKFDFRVLGKFSVVIADPAWNIHMNLPYGTCNDIELLGLPLHELQDEGIIFLWVTGRAIELGKESLNNWGYNVINEVSWIKTNQLGRTIVTGRTGHWLNHSKEHLLVGLKGNPKWINKHIDVDLIVSMTRETSRKPDELYGIAERLAGTHARKLEIFGRDHNTRPGWFTIGNQLTGNCIYEMDVERKYQEFMKSKTGTSHTGTKKIDKKQPSKLQQQHQQQYWNNMDMGSGKYYAEAKQNPMNQKHTPFESKQQQKQQFQTLNNLYFAQ
